We go through 36 sequences from the supplement of paper PMC7726561.

The full ranking holds about 1,100 sequences; the median of “thermal melting temperature (Tm) of peptide-HLA complex” is about 58, and the lowest 2% start at about 42. This is one part of the list.
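Also: cell lysates heated 10 min at 37–73 °C, remaining pHLA pulled down with pan-class I antibody, peptides quantified by DIA-MS versus 37 °C, Tm where half the complex is lost.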

For the test, the target named is HLA-A*02:01. Nature of the test: thermal melting temperature (Tm) of peptide-HLA complex; higher = more thermostable pHLA complex. The conditions noted are these: C1R-A*02:01.
ALLDQALSNA yielded a thermal melting temperature of 57.2 °C.

For KILPDLNTV, the thermal melting temperature was 56.8 °C.

Sequence VILEGELERA gave a thermal melting temperature of 56.7 °C.

Take VMFEDGVLMRL: the thermal melting temperature is 52.3 °C.

For QLYEFDIKV, the thermal melting temperature came to 58.1 °C.

VIINQIYEA yielded a thermal melting temperature of 58 °C.

For the sequence FIFEKKLAQA, the thermal melting temperature is 49.6 °C.

Sequence FLTEMELDRV had a thermal melting temperature of 58.4 °C.

Consider RQLEEEGITFV, for which the thermal melting temperature turned out to be 60.1 °C.

Sequence SLQEEIAKL came in with a thermal melting temperature of 53.4 °C.

SLLPGNLVEKV showed a thermal melting temperature of 60.2 °C.

In turn, SLNHLLNYV yielded a thermal melting temperature of 59.4 °C.

For the sequence AMAHVAGFTV, the thermal melting temperature came to 45.3 °C.

GLLENIPRV gave a thermal melting temperature of 64.8 °C.

For SLFPGKLEVV, the thermal melting temperature was determined as 61.8 °C.

Take SLKEIVINV: the thermal melting temperature came out at 56.7 °C.

On to YLWPRGSPAL, for which the thermal melting temperature was 41.3 °C.

FLPQKIIYL gave a thermal melting temperature of 53.3 °C.

In turn, VLADQEVRL showed a thermal melting temperature of 58.4 °C.

Sequence NVPDVYTQI displayed a thermal melting temperature of 47.9 °C.

Regarding KQVEEIFNL, the thermal melting temperature amounted to 62.8 °C.

The sequence TLLDPNEKYLL yielded a thermal melting temperature of 61.3 °C.

Sequence GLADKVYFL came in with a thermal melting temperature of 65.4 °C.

Turning to ALSEKIVSV, the thermal melting temperature was 56.9 °C.

Sequence KLIDGQVIQL showed a thermal melting temperature of 58.3 °C.

Sequence VLMNQPPQIAP showed a thermal melting temperature of 44.3 °C.

Regarding ILLEKEAEL, the thermal melting temperature came to 52.6 °C.

In the case of KLLEPSSPQFV, the thermal melting temperature came to 50.6 °C.

In the case of VLFENTDSVHL, the thermal melting temperature came to 58.5 °C.

Consider LLLPDQPPYHL, for which the thermal melting temperature is 44.1 °C.

The sequence KLDQVIIHV had a thermal melting temperature of 60.5 °C.

SVTSEGIKAV: the thermal melting temperature was determined as 46 °C.

With ALGPGVPHI, the thermal melting temperature is 58 °C.

Turning to IIMLEALERV, the thermal melting temperature was 46.6 °C.

The sequence SMLDDLRNV gave a thermal melting temperature of 60.9 °C.

As to KLADISINYV, the thermal melting temperature was 62.5 °C.
